From PubChem BioAssay AID296 (DTP/NCI, 2004)
Records with an inconclusive call do not appear. The source holds more than one record for some entries. This is not the full list of results. An entry can have further records. Values that stand side by side differ, and nothing given here explains why; they may come from other doses, times, organisms or constructs than stated.

Tested on: MX-1 breast xenograft, nude mice, tumor weight T/C
Experiment: NCI In Vivo Anticancer Drug Screen. Data for tumor model Human Mammary Carcinoma MX-1 Xenograft (intrarenal inoculation) in NU/NU Swiss (nude) mice
Settings: endpoint: mean tumor weight change, schedule: Q04DX003 (sc), higher = larger tumour
Protocol: The antitumor activity of compounds was measured in mice bearing transplantable tumors. Survival or tumor size were measured and the results are expressed as the measurement made in the treated group (T) divided by the measurement made in the vehicle treated control group (C). The tumor model used in this assay is Human Mammary Carcinoma MX-1 Xenograft (intrarenal inoculation) in NU/NU Swiss (nude) mice

NC(=O)c1[nH]nc(C2OC(CO)C(O)C2O)c1O (stereo not drawn)
T/C (dose: 5.0 mg/kg/injection, vehicle: saline): 18 % of control and 99 % of control | T/C (dose: 10.0 mg/kg/injection, vehicle: saline): 30 % of control and 66 % of control

CCC1CC2CN(CCc3c([nH]c4ccccc34)C(C(=O)OC)(c3cc4c(cc3OC)N(C)C3C(O)(C(=O)OC)C(OC(C)=O)C5(CC)C=CCN6CCC43C65)C2)C1 (stereo not drawn)
T/C (dose: 4.0 mg/kg/injection, vehicle: water): 3 % of control and 29 % of control

CCCCCCCCCCCCCCCCCC(=O)Nc1ccn(C2OC(CO)C(O)C2O)c(=O)n1 (stereo not drawn)
T/C (dose: 150.0 mg/kg/injection, vehicle: saline with Tween-80): 29 % of control, 42 % of control, 83 % of control | T/C (dose: 300.0 mg/kg/injection, vehicle: saline with Tween-80): 17 % of control, 33 % of control, 47 % of control

CC(C)(C)N1CC1CNC(=O)C(=O)NCC1CN1C(C)(C)C (stereo not drawn)
T/C (dose: 6.25 mg/kg/injection, vehicle: saline with Tween-80): 12 % of control, 38 % of control, 48 % of control | T/C (dose: 12.5 mg/kg/injection, vehicle: saline with Tween-80): 4 % of control, 13 % of control, 42 % of control | T/C (dose: 25.0 mg/kg/injection, vehicle: saline with Tween-80): -92 % of control, -63 % of control, -15 % of control
